{
  "source": "PubChem BioAssay AID1454",
  "about": "(National Center for Advancing Translational Sciences (NCATS), 2008)",
  "note": "Among all 130,000 compounds or so, about 550 (0.42%) were called active. The shares of active, inactive and inconclusive entries below differ from those in the screen. The call rests on the fitted dose curve; in most records, active means well fitted inhibition curve with a large enough effect; inconclusive means small, poorly fitted or top-dose-only effect, or effect the other way; inactive means flat fitted curve, though single readings scatter. No potency is given beside an inconclusive call; the fits are too rough. Potency means the concentration at half of the fitted maximal effect; tags describe the fitted curve by direction and shape.",
  "data": [
    {"assay": "qHTS Assay for Inhibitors of the ERK Signaling Pathway using a Homogeneous Screening Assay; Stimulation with EGF; further: nearly all actives have a fitted effect of over 55% in size;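 on activity change, negative = inhibition: plate controls were stimulated vehicle wells for no effect and unstimulated vehicle basal for full effect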", "conditions": "HEK293-V1b, EGF-stimulated phospho-ERK AlphaScreen; activity change, negative = inhibition: at the top concentration", "procedure,_shortened": "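Stably V1b-transfected HEK293 cells; 30 min compound, then EGF 25 nM final for 5 min at 37C; 10 min lysis; phospho-ERK by AlphaScreen after 5 hr beads at room temperature.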", "values": [
      {"smiles": "COc1ccc(-c2csc3ncnc(Nc4ccc(O)cc4)c23)cc1", "Potency": "active: 28.2 µM"},
      {"smiles": "COc1ccc(C2CC(c3ccc(Br)cc3)=NN2C(=O)CSC2=NCCS2)cc1", "note": "(centres undefined)", "activity change, negative = inhibition": "inactive: -2.99%"},
      {"smiles": "CC1OC(OC2C(OC3C(O[C@H]4CC[C@]5(C)C6C=C[C@]78OC[C@@]9(CC[C@@H](C)[C@H](C)C97)[C@H](O)C[C@@]8(C)[C@]6(C)CC[C@H]5C4(C)C)OC(C)C(O)C3O)OC(CO)C(O)C2O)C(O)C(O)C1O", "note": "(some centres undefined)", "Potency": "active: 11.2 µM"},
      {"smiles": "CCN(CC)c1ccc(/C=C(\\C#N)C(N)=S)cc1", "Potency": "inconclusive [inhibitor, single point]"},
      {"smiles": "COc1ccc(N2CCC(CNC(=S)Nc3c(C)cccc3C)C2)cc1", "note": "(centres undefined)", "Potency": "active: 12.6 µM"},
      {"smiles": "CCCCC/C=C\\C[C@@H](O)/C=C/C=C\\C/C=C\\CCCC(=O)O", "activity change, negative = inhibition": "inactive: 2.25%"},
      {"smiles": "COc1ccc(OCC(=O)Nc2ccc(N3CCOCC3)cc2)c([N+](=O)[O-])c1", "Potency": "inconclusive [inhibitor, single point]"},
      {"smiles": "OCCNc1nc2ccccc2nc1NCCO", "Potency": "inconclusive [inhibitor, single point]"},
      {"smiles": "CCCC1CCC(=NNC(=S)NCCc2ccccc2)CC1", "note": "(centres undefined)", "Potency": "inconclusive [inhibitor, single point]"},
      {"smiles": "C=CCNC(=S)N/N=C/c1ccc(-c2ccc(OC)cc2)o1", "Potency": "inconclusive [inhibitor, partial curve]"},
      {"smiles": "O=S(=O)(Nc1cc(Sc2cccc3cccnc23)c(O)c2ccccc12)c1ccc(F)cc1", "activity change, negative = inhibition": "inactive: 2.75%"},
      {"smiles": "COc1ccc(NC(=S)NCC2CCN(c3ccc(OC)cc3)C2)cc1", "note": "(centres undefined)", "Potency": "active: 25.1 µM"},
      {"smiles": "CC(C)c1ccc(N2C=Nc3ccc(C(C)C)cc3C2)cc1", "activity change, negative = inhibition": "inactive: -1.33% [at 57.5 µM]"},
      {"smiles": "COc1ccc(-n2cc(-c3ccccc3)c3c(N4CC(C)OC(C)C4)ncnc32)cc1", "note": "(centres undefined)", "Potency": "inconclusive [inhibitor, partial curve]"},
      {"smiles": "COc1ccc(NC(=O)N2CC3(CCN(C(=O)c4cccc(F)c4)CC3)C2)cc1", "activity change, negative = inhibition": "inactive: -11.3%"},
      {"smiles": "c1ccc2c(c1)COC(CN1CCCCC1)OC2", "activity change, negative = inhibition": "inactive: -3.39%"},
      {"smiles": "COc1ccccc1NC(=O)N1CCCC1", "Potency": "inconclusive [activator, partial curve]"},
      {"smiles": "Cc1nn(-c2nnc(NC3CCCCC3)nn2)c(C)c1Br", "Potency": "inconclusive [inhibitor, partial curve]"},
      {"smiles": "CC(=O)c1cccc(NC(=O)C2C(c3ccccc3)C2(Cl)Cl)c1", "note": "(centres undefined)", "Potency": "inconclusive [inhibitor, full curve, poor fit]"},
      {"smiles": "Oc1c(N=Nc2ccccc2)sc2ccccc12", "Potency": "inconclusive [inhibitor, partial curve]"},
      {"smiles": "CN(C)c1ccc(C(CNC(=O)c2ccccc2Br)c2c[nH]c3ccccc23)cc1", "note": "(centres undefined)", "Potency": "inconclusive [inhibitor, single point]"},
      {"smiles": "CCOC(=O)c1ccc(NC(=O)CN(C)S(=O)(=O)c2ccc(Br)s2)cc1", "Potency": "inconclusive [inhibitor, single point]"},
      {"smiles": "Cc1ccc(-c2cnc3n2CCCCC3)cc1", "Potency": "inconclusive [inhibitor, partial curve]"},
      {"smiles": "COc1ccccc1OCCNC(=O)Cc1ccc(Cl)c(Cl)c1", "activity change, negative = inhibition": "inactive: -0.0032%"},
      {"smiles": "O=C(NCCc1c[nH]c2ccccc12)C(=O)NCC(c1ccco1)N1CCN(c2ccccc2F)CC1", "note": "(centres undefined)", "Potency": "inconclusive [inhibitor, single point]"},
      {"smiles": "C(=Nc1ccc(Nc2ccccc2)cc1)c1ccc2ccccc2c1", "Potency": "inconclusive [inhibitor, single point]"},
      {"smiles": "COc1ccc(C2CC(=O)C=C(NCc3ccccc3)C2)cc1", "note": "(centres undefined)", "Potency": "inconclusive [inhibitor, single point]"},
      {"smiles": "CC(C)(C)C(=O)CSc1nc2c(c(-c3cccs3)c1C#N)CCC2", "Potency": "inconclusive [activator, single point]"},
      {"smiles": "S=c1[nH]nc(-c2ccccc2)n1/N=C/c1ccc(-c2ccccc2Cl)o1", "Potency": "inconclusive [inhibitor, single point]"},
      {"smiles": "FC(F)Oc1ccc(-c2csc(NNC3=NCCCCC3)n2)cc1", "Potency": "inconclusive [inhibitor, partial curve]"},
      {"smiles": "COc1cc2c(cc1NC(=O)Cc1ccc(C)cc1)oc1ccccc12", "activity change, negative = inhibition": "inactive: -9.98%"},
      {"smiles": "CCOc1c(Cl)cc(C(=O)Nc2cccc(C(=O)O)c2)cc1Cl", "activity change, negative = inhibition": "inactive: 5.11%"},
      {"smiles": "CC1(C)C2CCC1(C)C(OC(=O)c1ccc(O)cc1)C2", "note": "(centres undefined)", "Potency": "inconclusive [inhibitor, partial curve]"},
      {"smiles": "O=C(NN=C(Cc1ccccc1)Cc1ccccc1)c1ccccc1O", "Potency": "inconclusive [inhibitor, single point]"},
      {"smiles": "O=C(NCCN1CCc2ccccc2C1)Nc1ccc([N+](=O)[O-])cc1", "Potency": "inconclusive [inhibitor, single point]"},
      {"smiles": "CC(=O)N1CCC2(CCCN(C(=O)Nc3cccc(F)c3)C2)CC1", "activity change, negative = inhibition": "inactive: -6.42%"},
      {"smiles": "O=C(OCC1OC2OC3(CCCCC3)OC2C2OC3(CCCCC3)OC12)c1ccccc1", "note": "(centres undefined)", "Potency": "inconclusive [inhibitor, single point]"},
      {"smiles": "O=C(COC(=O)c1cc(-c2ccc(F)cc2)nc2ccccc12)NCC1CCCO1", "note": "(centres undefined)", "Potency": "inconclusive [inhibitor, single point]"},
      {"smiles": "CCN(CC)CCCn1c(-c2ccccc2)nc2c(N(CCOC)CCOC)nc(C)nc21", "activity change, negative = inhibition": "inactive: -5.68%"},
      {"smiles": "O=S(=O)(Nc1nc(SCc2ccc(Cl)cc2)n[nH]1)c1ccccc1", "Potency": "inconclusive [inhibitor, partial curve]"},
      {"smiles": "N#CCSc1nc2[nH]ncc2c(=O)n1-c1ccccc1Br", "Potency": "inconclusive [inhibitor, full curve]"},
      {"smiles": "CC1CCC/C(=C(\\C#N)c2nc(-c3cc4ccccc4oc3=O)cs2)C1", "note": "(centres undefined)", "Potency": "inconclusive [activator, single point]"},
      {"smiles": "COc1ccc(N=C2NC(=O)/C(=C/c3ccc(O)c(OC)c3)S2)cc1", "Potency": "inconclusive [inhibitor, single point]"},
      {"smiles": "COc1ccccc1C(=O)NCc1ccc(-c2nc3ccccc3s2)cc1", "Potency": "inconclusive [inhibitor, partial curve]"},
      {"smiles": "COc1ccc(C2CC(c3ccc4ccccc4c3)=NN2C(=O)CNC2CCCCC2)cc1", "note": "(centres undefined)", "activity change, negative = inhibition": "inactive: 5.69%"},
      {"smiles": "O=C(Nc1ccccc1[N+](=O)[O-])C1(c2ccccc2)CCOCC1", "Potency": "inconclusive [inhibitor, single point]"},
      {"smiles": "COc1ccc(-n2nc([N+](=O)[O-])c(=NCCC3=CCCCC3)n2O)cc1", "Potency": "active: 28.2 µM"},
      {"smiles": "CCCC(=O)NC(c1ccccc1OC)c1ccc2cccnc2c1O", "note": "(centres undefined)", "Potency": "inconclusive [inhibitor, partial curve]"},
      {"smiles": "O=[N+]([O-])c1nn(-c2ccccc2)[n+]([O-])c1N1CCN(c2ccccc2F)CC1", "Potency": "inconclusive [inhibitor, single point]"},
      {"smiles": "O=C(Nc1cccnc1)/C(N=Nc1c(Cl)cccc1Cl)=C(\\O)c1ccccc1", "Potency": "inconclusive [inhibitor, partial curve]"},
      {"smiles": "COc1ccc(C(C[N+](=O)[O-])C2(c3ccc(OC)c(OC)c3)C(=O)c3ccccc3C2=O)cc1", "note": "(centres undefined)", "Potency": "inconclusive [inhibitor, single point]"},
      {"smiles": "COc1cccc2cc(C(=O)C3=C(O)C(=O)N(CCN(C)C)C3c3ccc(Cl)cc3)oc12", "note": "(centres undefined)", "activity change, negative = inhibition": "inactive: -0.0141% [at 57.5 µM]"},
      {"smiles": "CC1CC(C)(C)NC(=S)N1CCCC(=O)Nc1ccc(F)c(F)c1", "note": "(centres undefined)", "Potency": "inconclusive [inhibitor, partial curve, poor fit]"},
      {"smiles": "NC(=O)c1ccc(N=Nc2c(-c3ccccc3)[nH]n(-c3ccccc3)c2=O)cc1", "activity change, negative = inhibition": "inactive: -7.27%"},
      {"smiles": "O=C(O)c1ccccc1NS(=O)(=O)c1ccc(NNC(=S)Nc2ccc(OC(F)F)cc2)c([N+](=O)[O-])c1", "Potency": "inconclusive [inhibitor, partial curve]"},
      {"smiles": "O=C1CC[C@@H](C(=O)N2CSC[C@H]2C(=O)O)N1", "Potency": "inconclusive [inhibitor, partial curve]"},
      {"smiles": "O=C(Nc1ccc(S(=O)(=O)N2CCCC2)cc1)c1ccc(OCC2CCCO2)cc1", "note": "(centres undefined)", "activity change, negative = inhibition": "inactive: -0.767%"},
      {"smiles": "O=C1c2ccccc2-c2onc3ccc(Oc4ccccc4)c1c23", "Potency": "inconclusive [inhibitor, partial curve]"},
      {"smiles": "O=C1/C(=C/c2cccnc2)SC(=S)N1CCc1ccccc1", "Potency": "inconclusive [inhibitor, partial curve]"},
      {"smiles": "Cc1cc(NCCCn2ccnc2)n2nc(-c3ccc(Cl)cc3)cc2n1", "Potency": "inconclusive [inhibitor, single point]"},
      {"smiles": "O=C(Nc1ccccc1Cl)c1ccc2nsnc2c1", "Potency": "inconclusive [inhibitor, single point]"},
      {"smiles": "Brc1ccc(-c2csc(N/N=C/c3cccnc3)n2)cc1", "Potency": "inconclusive [inhibitor, single point]"},
      {"smiles": "CC(C)N(C(C)C)S(=O)(=O)c1ccc(Cl)nc1", "activity change, negative = inhibition": "inactive: 2.14%"},
      {"smiles": "CC(=O)Oc1cccc(/C=C2\\Sc3ccccc3C2=O)c1", "Potency": "inconclusive [inhibitor, single point]"},
      {"smiles": "COc1ccc(COc2ccc(C3C(S(=O)(=O)c4ccccc4)CON3C)cc2OC)cc1", "note": "(centres undefined)", "Potency": "inconclusive [inhibitor, single point]"},
      {"smiles": "O=C(O)/C=C/C(O)c1ccc(Cl)cc1", "note": "(centres undefined)", "activity change, negative = inhibition": "inactive: 4.84%"},
      {"smiles": "CCN1/C(=C2\\SC(=S)N(Cc3ccccc3)C2=O)Sc2ccccc21", "activity change, negative = inhibition": "inactive: -3.19%"},
      {"smiles": "N=C1/C(=C/c2cccn2Cc2ccc(Cl)cc2)C(=O)N=C2SC=CN12", "Potency": "inconclusive [inhibitor, single point]"},
      {"smiles": "O=C(NC(=S)Nc1ccc(Cc2ccncc2)cc1)c1ccccc1", "Potency": "inconclusive [inhibitor, single point]"}
    ]}
  ]
}
